# Measured values: PubChem BioAssay (Tox21)
# Where “and” joins values, the source holds several entries; their conditions need not be identical. Identical values can stand only once. This list was built around the results that the source calls inconclusive (neither active nor inactive); the mix of calls is not that of the screen. Where the call is inconclusive, the potency comes from a doubtful curve fit. Calls of active or inactive are those of the source. Unless noted, calls follow the shape of the dose curve; as a rule, active = well fitted curve in the direction sought with a large enough effect in the repeat runs; inconclusive = weak or mixed curves; inactive = no such curve, though single readings can be large; an effect the other way counts as inactive or inconclusive.
# Legend:
# [1] = target: Peroxisome proliferator-activated receptor delta (Homo sapiens) (UniProt Q03181); assay: qHTS assay to identify small molecule agonists of the peroxisome proliferator-activated receptor delta (PPARd) signaling pathway (AID 743212; calls by dose curve;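 also: HEK293H cells with PPARd UAS beta-lactamase reporter GeneBLAzer system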; as to activation: % is scaled to controls: 0 for no effect and ±100 for the full control effect); settings: HEK293H PPARd-UAS-bla, beta-lactamase FRET ratio, 17 h; activation: at 62.6 µM (top of the series) unless noted
# Chain of UniProt Q03181 (Q03181 whole entry, looked up): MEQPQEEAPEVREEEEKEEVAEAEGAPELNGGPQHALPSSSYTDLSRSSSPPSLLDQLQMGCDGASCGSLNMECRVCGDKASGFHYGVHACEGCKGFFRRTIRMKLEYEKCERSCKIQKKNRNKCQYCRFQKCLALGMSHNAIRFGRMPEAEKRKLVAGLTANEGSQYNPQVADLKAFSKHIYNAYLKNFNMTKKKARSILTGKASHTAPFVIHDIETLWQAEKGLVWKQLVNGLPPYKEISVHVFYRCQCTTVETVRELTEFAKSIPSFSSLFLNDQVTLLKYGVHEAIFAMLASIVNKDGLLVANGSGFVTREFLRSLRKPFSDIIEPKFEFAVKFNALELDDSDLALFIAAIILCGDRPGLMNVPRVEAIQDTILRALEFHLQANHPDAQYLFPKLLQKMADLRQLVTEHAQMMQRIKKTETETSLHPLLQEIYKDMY
# Summary of the method: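 Steps: seed PPARd-bla HEK293H cells; incubate 5 h, 37 C, 5% CO2; add compounds in DMSO; incubate, 37 C; add LiveBLAzer B/G FRET substrate; hold 2 h at room temperature; measure fluorescence.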
# [2] = qHTS assay to identify small molecule antagonists of the peroxisome proliferator-activated receptor delta (PPARd) signaling pathway - cell viability counter screen (AID 743213); settings: PPARd-bla HEK293H viability, CellTiter-Glo luminescence, 17 h; viability change, negative = cytotoxic: at 62 µM (top of the series) unless noted; also: nearly all actives have a fitted effect of over 50% in size
# Summary of the method: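 Cytotoxicity counter screen: CellTiter-Glo luminescence read 30 min after addition, in the same wells as the reporter assay. There, PPARd UAS-bla HEK293H cells (3000/well) were treated 17 h at 37 C with compound and 300 nM L165041.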
# [3] = target: Peroxisome proliferator-activated receptor delta (Homo sapiens) (UniProt Q03181); assay: qHTS assay to identify small molecule antagonists of the peroxisome proliferator-activated receptor delta (PPARd) signaling pathway (AID 743215; active = well fitted inhibition curve with a large enough effect in the signal ratio in the repeat runs, not every such curve was filed as active; inconclusive = weak or mixed curves, or effect the other way; inactive = no such curve, though single readings can be large or run the other way; the % refers to the signal ratio;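 also: cells stimulated with agonist L165041 at 300 nM final during compound exposure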); settings: HEK293H PPARd-UAS-bla, beta-lactamase FRET ratio, antagonist, 17 h; ratio activity, negative = inhibition: at 62 µM (top of the series) unless noted
# Summary of the method: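 Fluorescence from cleaved LiveBLAzer B/G FRET substrate (2 h, room temperature) reports PPARd-driven beta-lactamase in HEK293H UAS-bla cells. Cells had been treated 17 h at 37 C with compound plus 300 nM final L165041.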
# [4] = target: Bile acid receptor (Homo sapiens) (UniProt Q96RI1); assay: qHTS assay to identify small molecule antagonists of the farnesoid-X-receptor (FXR) signaling pathway (AID 743217; active = well fitted inhibition curve with a large enough effect in the signal ratio in the repeat runs, not every such curve was filed as active; inconclusive = weak or mixed curves, or effect the other way; inactive = no such curve, though single readings can be large or run the other way; the % refers to the signal ratio); settings: HEK293T FXR-UAS-bla, beta-lactamase ratio, CDCA-stimulated, 16 h; activity change, negative = inhibition: at 62.6 µM (top of the series) unless noted
# Chain of UniProt Q96RI1 (Q96RI1 whole entry, looked up): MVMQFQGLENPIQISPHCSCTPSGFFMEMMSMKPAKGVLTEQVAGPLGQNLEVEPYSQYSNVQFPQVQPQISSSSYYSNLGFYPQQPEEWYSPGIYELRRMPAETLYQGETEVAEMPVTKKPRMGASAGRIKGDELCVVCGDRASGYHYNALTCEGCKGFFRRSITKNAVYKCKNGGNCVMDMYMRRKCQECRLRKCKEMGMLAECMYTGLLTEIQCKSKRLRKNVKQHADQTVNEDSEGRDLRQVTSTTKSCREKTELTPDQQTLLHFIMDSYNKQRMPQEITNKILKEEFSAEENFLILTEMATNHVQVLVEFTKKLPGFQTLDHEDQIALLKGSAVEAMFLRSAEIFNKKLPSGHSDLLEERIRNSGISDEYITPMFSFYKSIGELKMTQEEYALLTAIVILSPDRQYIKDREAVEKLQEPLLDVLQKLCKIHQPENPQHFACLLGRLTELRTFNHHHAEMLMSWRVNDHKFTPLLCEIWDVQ
# Summary of the method: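 FRET fluorescence after 2 h room-temperature LiveBLAzer loading gives the readout. Prior step: FXR-bla HEK 293T cells, seeded and incubated 5 h, received test compounds plus 50 uM final CDCA for 16 h at 37 °C.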
# [5] = qHTS assay to identify small molecule antagonists of the farnesoid-X-receptor (FXR) signaling pathway - cell viability counter screen (AID 743221; active = well fitted cell-killing curve with a large enough effect in the repeat runs, not every such curve was filed as active; inconclusive = weak or mixed curves, or effect the other way; inactive = no such curve, though single readings can be large or run the other way; also: nearly all actives have a fitted effect of over 50% in size); settings: FXR-bla HEK293T viability, CellTiter-Glo luminescence, 16 h; activity change, negative = cytotoxicity: at 62.6 µM (top of the series)
# Summary of the method: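 FXR-UAS-bla HEK 293T cells were treated with test compounds plus chenodeoxycholic acid (50 uM final) for 16 h at 37 C. Cell viability in the same wells was then read as CellTiter-Glo luminescence after 30 min at room temperature.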
# [6] = target: Vitamin D3 receptor (Homo sapiens) (UniProt P11473); assay: qHTS assay to identify small molecule agonists of the vitamin D receptor (VDR) signaling pathway (AID 743222; calls by dose curve); settings: HEK293T VDR-UAS-bla, beta-lactamase FRET ratio, 16 h; activation: at 63.5 µM (top of the series) unless noted
# Chain of UniProt P11473 (P11473 whole entry, looked up): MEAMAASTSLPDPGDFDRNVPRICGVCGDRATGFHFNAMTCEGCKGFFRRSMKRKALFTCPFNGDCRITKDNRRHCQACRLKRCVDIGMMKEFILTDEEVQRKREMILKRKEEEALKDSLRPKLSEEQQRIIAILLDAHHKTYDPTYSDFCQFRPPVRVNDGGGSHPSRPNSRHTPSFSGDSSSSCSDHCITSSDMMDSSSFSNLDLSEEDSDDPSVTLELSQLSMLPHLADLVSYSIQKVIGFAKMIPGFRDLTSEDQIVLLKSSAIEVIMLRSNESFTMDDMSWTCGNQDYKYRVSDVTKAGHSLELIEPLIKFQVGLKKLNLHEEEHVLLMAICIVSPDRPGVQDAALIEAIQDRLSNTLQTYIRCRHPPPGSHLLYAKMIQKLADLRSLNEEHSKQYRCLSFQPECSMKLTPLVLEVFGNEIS
# Summary of the method: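 Following 4 h attachment at 37C, VDR-bla cells (2,000 per well) received DMSO-dissolved compounds or controls. After 16 h incubation, LiveBLAzer B/G FRET substrate was added and fluorescence read 2 h later at room temperature.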
# [7] = target: Vitamin D3 receptor (Homo sapiens) (UniProt P11473); assay: qHTS assay to identify small molecule antagonists of the vitamin D receptor (VDR) signaling pathway (AID 743223; active = well fitted inhibition curve with a large enough effect in the signal ratio in the repeat runs, not every such curve was filed as active; inconclusive = weak or mixed curves, or effect the other way; inactive = no such curve, though single readings can be large or run the other way; the % refers to the signal ratio; as to activity change, negative = inhibition: % is scaled to controls: 0 for no effect and ±100 for the full control effect); settings: VDR-UAS-bla HEK293T, beta-lactamase FRET ratio, 16 h; activity change, negative = inhibition: at 61 µM (top of the series) unless noted
# Summary of the method: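 VDR-bla cells were plated, incubated 4 h at 37C, then given compound and 1alpha,25-dihydroxyvitamin D3 (3 nM final). After 16 h at 37C, LiveBLAzer B/G FRET substrate was added for 2 h at room temperature and fluorescence read.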
# [8] = qHTS assay to identify small molecule agonists of the endoplasmic reticulum stress response signaling pathway (AID 1159516; active = well fitted activation curve with a large enough effect in the signal ratio in the repeat runs, not every such curve was filed as active; inconclusive = weak or mixed curves, or effect the other way; the % refers to the signal ratio; as to activation: % is scaled to controls: 0 for no effect and ±100 for the full control effect); settings: ESRE-bla HeLa, ER stress beta-lactamase reporter, 5 h; activation: at 61 µM (top of the series) unless noted
# Summary of the method: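 Beta-lactamase expression from the ER stress response element in HeLa reporter cells is quantified with the LiveBLAzer B/G FRET substrate, read at 405 nm excitation after 2 hr at room temperature, following 5 hr compound treatment at 37 C.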
# [9] = qHTS assay to identify small molecule antagonists of the retinoid-related orphan receptor gamma (ROR-gamma) signaling pathway - cell viability counter screen (AID 1159520); also: nearly all actives have a fitted effect of over 50% in size
# Summary of the method: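 Cytotoxicity was read from cellular ATP (CellTiter-Glo luminescence) after 16 hr at 37 C with 1 uM doxycycline induction. The inducer was added 2 hr after compound transfer to Tet-on ROR gamma CHO cells.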
# [10] = target: Nuclear receptor ROR-gamma (Homo sapiens) (UniProt P51449); assay: qHTS assay to identify small molecule antagonists of the retinoid-related orphan receptor gamma (ROR-gamma) signaling pathway (AID 1159521; also: nearly all actives have a fitted effect of over 50% in size)
# Summary of the method: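 Tet-on RORγ CHO cells carrying a ROR response element–luciferase reporter were pretreated with compounds for 2 h, then induced with 1 uM (final) doxycycline hyclate for 16 h at 37 C. Antagonism was read as decreased ONE-Glo luminescence.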
# [11] = target: Retinoic acid receptor RXR-alpha (Homo sapiens) (UniProt P19793); assay: qHTS assay to identify small molecule agonists of the RXR signaling pathway (AID 1159527; calls by dose curve; also: nearly all actives have a fitted effect of over 35% in size); settings: HEK293T RXRa-UAS-bla, beta-lactamase ratio, 16 h; activation: at 76.8 µM (top of the series) unless noted
# Chain of UniProt P19793 (P19793 whole entry, looked up): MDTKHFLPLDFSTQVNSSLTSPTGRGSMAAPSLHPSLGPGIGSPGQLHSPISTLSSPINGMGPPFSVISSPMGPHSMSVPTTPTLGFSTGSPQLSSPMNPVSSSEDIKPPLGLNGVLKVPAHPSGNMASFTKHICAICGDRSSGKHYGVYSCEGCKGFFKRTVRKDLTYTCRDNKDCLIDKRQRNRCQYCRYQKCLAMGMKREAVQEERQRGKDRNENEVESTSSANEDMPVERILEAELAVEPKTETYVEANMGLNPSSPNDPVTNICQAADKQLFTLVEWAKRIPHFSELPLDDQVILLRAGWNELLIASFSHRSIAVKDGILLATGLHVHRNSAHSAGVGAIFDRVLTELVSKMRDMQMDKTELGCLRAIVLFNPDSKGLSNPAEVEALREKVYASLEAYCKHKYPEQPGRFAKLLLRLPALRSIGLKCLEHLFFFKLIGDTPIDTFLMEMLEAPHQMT
# Summary of the method: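 GeneBLAzer RXR-alpha-UAS-bla HEK 293T cells in medium with 2% charcoal-stripped FBS, pre-incubated 5 hr at 37 C, then exposed to compounds 16 hr. Beta-lactamase reporter read by FRET substrate, 2 hr room temperature, 460/530 nm emission.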
# [12] = qHTS assay to identify small molecule agonists of the RXR signaling pathway - cell viability counter screen (AID 1159529); also: nearly all actives have a fitted effect of over 50% in size; as to activity change, negative = cytotoxicity: % is scaled to controls: 0 for no effect and ±100 for the full control effect
# Summary of the method: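 RXR-alpha-UAS-bla HEK 293T cells in medium with 2% charcoal-stripped FBS were preincubated 5 hr, then exposed to compounds for 16 hr at 37 C. Viability was read as CellTiter-Glo luminescence after 30 min at room temperature.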
# [13] = qHTS assay to identify small molecule agonists of the vitamin D receptor (VDR) signaling pathway - cell viability counter screen (AID 743224); settings: VDR-bla HEK293T viability, CellTiter-Glo luminescence, 16 h; activity change, negative = cytotoxicity: at 62.6 µM (top of the series); also: nearly all actives have a fitted effect of over 50% in size
# Summary of the method: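 In parallel with the bla FRET readout, cytotoxicity toward VDR-bla cells after 16 h compound exposure was assessed by CellTiter-Glo, with luminescence recorded after a 30 min room-temperature incubation.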
# [14] = qHTS assay to identify small molecule antagonists of the vitamin D receptor (VDR) signaling pathway - cell viability counter screen (AID 743225); settings: VDR-bla HEK293T viability, CellTiter-Glo luminescence, 16 h; viability change, negative = cytotoxic: at 61 µM (top of the series) unless noted; also: nearly all actives have a fitted effect of over 50% in size
# Summary of the method: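 VDR-bla HEK 293T cells, 4 h pre-incubation at 37C, then compound plus 1-alpha,25-dihydroxyvitamin D3 (3 nM final) for 16 h. After the beta-lactamase FRET read, CellTiter-Glo was added to the same wells; luminescence after 30 min at room temperature.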
# [15] = qHTS assay to identify small molecule agonists of the AP-1 signaling pathway - cell viability counter screen (AID 1159525; calls by dose curve; also: nearly all actives have a fitted effect of over 55% in size)
# Summary of the method: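 Intracellular ATP by Cell Titer Glo luminescence (30 min, RT) in the same ME-180 AP-1-bla wells after the 5 h compound exposure at 37 °C. Normalised to tetra n-octyl ammonium bromide and DMSO controls.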
# [16] = qHTS assay to identify small molecule agonists of the AP-1 signaling pathway (AID 1159526; calls by dose curve); settings: ME-180 (cervical carcinoma) AP-1-bla reporter, beta-lactamase FRET ratio, 5 h; activation: at 76.8 µM (top of the series) unless noted
# [17] = qHTS assay to identify small molecule antagonists of the retinoid acid receptor (RAR) signaling pathway - cell viability counter screen (AID 1159551); also: nearly all actives have a fitted effect of over 35% in size
# Summary of the method: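 Viability of C3RL4 cells is quantified from ATP by luminescence after 6 h treatment at 37 C with compounds and 1 uM retinol.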
# [18] = qHTS assay to identify small molecule agonists of the farnesoid-X-receptor (FXR) signaling pathway - cell viability counter screen (AID 743218); settings: FXR-bla HEK293T viability, CellTiter-Glo luminescence, 16 h; viability change, negative = cytotoxic: at 62.6 µM (top of the series) unless noted; also: nearly all actives have a fitted effect of over 45% in size
# Summary of the method: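 Readout: CellTiter-Glo luminescence, 30 min RT, multiplexed after the FXR-bla FRET reading. HEK 293T FXR-UAS-bla cells received compound 5 h post-plating and were incubated 16 h at 37 C.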
# Potency is read from the fitted curve at half-maximal effect; tags tell the direction and shape of the fitted curve or compound fluorescence and quenching.
compound,measurement,setting,value
Fc1ccc(C(c2ccc(F)cc2)N2CCN(C/C=C/c3ccccc3)CC2)cc1,Potency,[1],inconclusive: 33.5 µM
same,Potency,[2],"inconclusive: 33.5 µM [cytotoxic, single point]"
same,Potency,[3],"inconclusive: 33.5 µM [inhibitor, single point]"
same,Potency,[4],inconclusive: 29.8 µM
same,Potency,[5],"inconclusive: 33.5 µM [falling, single point]"
same,Potency,[6],"inconclusive: 33.5 µM [partial curve, poor fit]"
same,Potency,[7],inconclusive: 26.8 µM [single point]
same,Potency,[8],"inconclusive: 0.0674 µM [rising, partial curve]"
same,Potency,[9],"inconclusive: 33.5 µM [cytotoxic, partial curve, poor fit]"
same,Potency,[10],active: 23.7 µM
same,Potency,[11],"inconclusive: 0.535 µM [inhibitor, full curve]"
same,Potency,[12],"inconclusive: 26.8 µM [cytotoxic, single point]"
Cc1nc2c([nH]1)c(=O)n(C)c(=O)n2Cc1ccco1,Potency,[8],inactive
CC(=O)OCC1=C(C(=O)O)N2C(=O)[C@@H](NC(=O)Cc3cccs3)[C@H]2SC1,Potency,[8],inactive
C[C@@H](CN1CC(=O)NC(=O)C1)N1CC(=O)NC(=O)C1,Potency,[8],inactive
O=S(=O)(O)c1ccc(Cl)cc1,Potency,[8],inactive
CN1Cc2cc(C(=O)N3CCC(C4CCNCC4)CC3)ccc2N[C@@H](CC(=O)O)C1=O,Potency,[8],inactive
O=c1c(-c2ccccc2)c1-c1ccccc1,Potency,[1],inconclusive: 33.5 µM [single point]
same,Potency,[2],inconclusive: 33.5 µM [cytotoxic]
same,Potency,[3],"inconclusive: 33.5 µM [rising, partial curve]"
same,Potency,[4],inconclusive: 9.44 µM
same,Potency,[6],"inconclusive: 18.8 µM [rising, partial curve]"
same,Potency,[7],"inconclusive: 23.9 µM [rising, partial curve]"
same,Potency,[13],"inconclusive: 18.8 µM [cytotoxic, partial curve]"
same,Potency,[14],"inconclusive: 26.8 µM [cytotoxic, partial curve, poor fit]"
same,Potency,[8],inconclusive: 23.9 µM
same,Potency,[9],inconclusive: 11.9 µM [cytotoxic]
same,Potency,[15],"inconclusive: 4.77 µM [rising, full curve]"
same,Potency,[16],"inconclusive: 3.79 µM [falling, full curve]"
same,Potency,[11],"inconclusive: 1.34 µM [rising, full curve, poor fit]"
same,Potency,[12],active: 6.01 µM
same,Potency,[17],"inconclusive: 10.6 µM [rising, partial curve]"
O=C(OCC1CO1)C1CCCCC1C(=O)OCC1CO1 (stereo unspecified),Potency,[1],"inconclusive: 21.9 µM [rising, full curve, poor fit]"
same,"activity change, negative = inhibition",[7],inconclusive: 20%
same,Potency,[8],inconclusive: 61.8 µM
same,Potency,[9],inactive
same,Potency,[15],"inconclusive: 21.9 µM [rising, partial curve, poor fit]"
same,Potency,[11],"inconclusive: 39 µM [fluorescent, partial curve]"
same,Potency,[12],inactive
same,Potency,[17],"inconclusive: 61.2 µM [rising, partial curve, poor fit]"
Oc1cccc(O)c1O,activation,[1],inconclusive: 9.56%
same,Potency,[2],"inconclusive: 0.0306 µM [cytotoxic, full curve, poor fit]"
same,Potency,[7],inactive
same,Potency,[14],"inconclusive: 0.193 µM [cytotoxic, single point]"
same,Potency,[8],"inconclusive: 54.5 µM [rising, single point]"
same,Potency,[9],"inconclusive: 54 µM [cytotoxic, partial curve, poor fit]"
same,activation,[16],inconclusive: 19.1%
same,Potency,[11],"inconclusive: 10.9 µM [activator, full curve]"
same,Potency,[12],"inconclusive: 54.5 µM [cytotoxic, partial curve, poor fit]"
same,Potency,[17],"inconclusive: 60.6 µM [cytotoxic, partial curve]"
COc1ccc(-c2coc3cc(O)cc(O)c3c2=O)cc1,Potency,[1],"inconclusive: 4.36 µM [rising, partial curve, poor fit]"
same,activation,[1],inconclusive: 3.1% [at 81.1 µM]
same,Potency,[3],"inconclusive: 38.9 µM [inhibitor, partial curve]"
same,Potency,[18],"inconclusive: 61.7 µM [rising, single point]"
same,Potency,[6],inconclusive: 7.76 µM
same,"activity change, negative = inhibition",[7],inconclusive: -29.3%
same,Potency,[13],"inactive and inconclusive: 6.92 µM [cytotoxic, partial curve, poor fit]"
same,Potency,[8],inconclusive: 55.4 µM
same,Potency,[9],"inconclusive: 68.6 µM [cytotoxic, partial curve, poor fit]"
same,Potency,[15],"inconclusive: 62.2 µM [cytotoxic, single point] and inconclusive: 54.9 µM [cytotoxic, partial curve, poor fit]"
OCCN(CCO)CCN(CCO)CCO,Potency,[8],inactive
same,Potency,[10],"inconclusive: 0.243 µM [inhibitor, single point]"
C1COCCO1,Potency,[1],inactive
same,Potency,[7],inactive
same,Potency,[8],inactive
same,Potency,[9],inactive
same,Potency,[15],inactive
same,Potency,[11],inactive
CC1=CC(=O)CCC1,Potency,[2],inactive
same,"ratio activity, negative = inhibition",[3],inconclusive: -0.701%
same,Potency,[8],inactive
same,Potency,[10],inactive
same,Potency,[15],inactive
same,Potency,[12],"inconclusive: 17.4 µM [rising, partial curve, poor fit]"
CC(C)CC(=O)N[C@H](C(=O)N[C@H](C(=O)N[C@@H](CC(C)C)[C@@H](O)CC(=O)N[C@@H](C)C(=O)N[C@@H](CC(C)C)[C@@H](O)CC(=O)O)C(C)C)C(C)C,Potency,[8],inactive
same,Potency,[10],inactive
